This is an account of results in PubChem BioAssay AID1963858 (Molecular Pharmacology Branch, DTP, NCI, 2024).

The structures appear in SMILES notation. For part of its entries the source gives two or more results. This is not the full list of results. An entry can have further records. Values given together are repeats in other runs, samples, wells, individuals or studies. Additions like (4×) give the number of equal values in this list.

The assay deals with HOP-62 multicell spheroids with HUVEC/MSC, viability. The experiment in a line: Anticancer human tumor HOP-62 cell line growth inhibition [KRAS2].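 As to all read-outs here: viability read after a week of compound exposure.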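 As to viability, T/C: 100% = DMSO vehicle-treated spheroids.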 Conditions: for viability, T/C: stronger effect = lower value; for IC50: compound alone. From the text: Multicellular complex tumor spheroid response to RAS pathway inhibitors in combination with a targeted agents in patient-derived cell lines with oncogenic KRAS variants from multiple cancer types
A high-throughput screen of multi-cell type tumor spheroids was designed to identify active combinations of targeted small molecules and KRAS pathway inhibitors. Complex spheroids include a stromal component modeled by human endothelial cells (HUVEC) and fibroblasts modeled by human mesenchymal stem cells (MSCs). The concentration ranges selected for each drug and investigational agent were based upon clinically achievable concentrations if the clinical Cmax of the agent was known.
Compounds. The drugs and investigational agents: BI-3406 (NSC825286), BAY-293 (NSC824723), batoprotafib (TNO155; NSC825523), sotorasib (AMG 510; NSC818433), MRTX1257 (NSC819558), elimusertib (BAY 1895344; NSC800525), molibresib (GSK525762; NSC774829), temuterkib (LY3214996; NSC803410), venetoclax (NSC766270), alisertib (NSC759677), olaparib (NSC753686), talazoparib (NSC767125), erdafitinib (NSC781556), ipatasertib (NSC767898), cabozantinib (NSC761068), nintedanib (NSC756659), abemaciclib (NSC768073), docetaxel (NSC628503), trametinib (NSC758246), and sapanisertib (NSC764658) were obtained from the National Cancer Institute (NCI) Developmental Therapeutics Program Chemical Repository. The FDA-approved anticancer drug set is available from the Developmental Therapeutics Program. […] The stock solutions were prepared in dimethyl sulfoxide (DMSO, Sigma-Aldrich, St. Louis, MO, cat. D2650) at 800-fold the tested concentration and stored at -70 degrees C prior to their use. All drugs and investigational agents were tested over a range starting from a high concentration at or near the clinical Cmax and decreasing in half-log increments. If the clinical Cmax for an agent had not been determined, the highest concentration tested was 10 microM.
Cell Culture. All cells were maintained in an incubator at 37 degrees C and 5% CO2 with 95% humidity. The PDC lines were cultured according to standard operating procedures established by the NCI PDMR (https://pdmr.cancer.gov/sops/default.htm). Briefly, all PDCs were thawed and cultured in Matrigel-coated flasks prepared with a working solution of 1X Ham's F-12 nutrient mix, without supplementation (Invitrogen, Waltham, MA, cat. 11765054), 100 U/mL penicillin-streptomycin (Invitrogen, cat. 15140122), and 2.5% Matrigel (Corning Inc., Corning, NY, cat. 354248) for the first three passages. All PDCs were cultured in complete DMEM/F-12 media containing advanced DMEM/F-12 (Invitrogen, cat. 12634028), 4.9% defined fetal bovine serum, heat inactivated (HyClone Laboratories Inc., Logan, UT, cat. SH30070.03HI), 389 ng/mL hydrocortisone (Sigma-Aldrich, cat. H4001), 9.7 ng/mL human EGF recombinant protein (Invitrogen, cat. PHG0313), 23.4 microg/mL adenine (Sigma-Aldrich, cat. A2786), 97.3 U/mL penicillin-streptomycin (Invitrogen, cat. 15140122), 1.9 mM L-glutamine (Invitrogen, cat. 25030081), and 9.7 microM Y-27632 dihydrochloride (Tocris Bioscience, Bristol, United Kingdom, cat. 1254). The PDCs were cultured in complete DMEM/F12 media without 9.7 microM Y-27632 dihydrochloride for at least two passages prior to the screen. The established cell line HOP-62 was cultured in RPMI 1640 medium, HEPES (Invitrogen, cat. 22400105) with 10% defined fetal bovine serum (HyClone Laboratories Inc., cat. SH30070.03) and 2 mM L-glutamine (Invitrogen, cat. 25030081). The pooled donor HUVEC were cultured in endothelial cell growth medium 2 (PromoCell, Heidelberg, Germany, cat. C-22011) and the hMSC were cultured in mesenchymal stem cell growth medium 2 (PromoCell, cat. C-28009). For all experiments, HUVEC and hMSC were used at passages </=5, while the malignant cell lines were used at passages </=15. […]

Turning to `CCNC(=O)CC1N=C(c2ccc(Cl)cc2)c2cc(OC)ccc2-n2c(C)nnc21` (stereo unspecified), the viability, T/C (compound alone 10 µM) is reported as 44.9, 45.4, 41.8, 19.1, 43.2%.

For `O=C(c1cc(Cc2n[nH]c(=O)c3ccccc23)ccc1F)N1CCN(C(=O)C2CC2)CC1`, the viability, T/C by setting is: (compound alone 1 µM) 76.5, 68.3, 93, 84, 97.1%; (compound alone 3.16 µM) 51.2, 55, 79.1, 78.5, 78.7%.

Regarding `C=CC(=O)N1CCN(c2nc(OCC3CCCN3C)nc3c2CCN(c2cccc4cccc(C)c24)C3)CC1CC#N` (stereo unspecified), the viability, T/C is recorded as 83.1, 94.4, 70.4, 58.9, 81, 83.8, 76.5, 63.4, 61.9, 79.1, 77.4, 79.4, 83.2, 78.4, 84.5, 72.2, 80% (compound alone 0.0316 µM); 61.7, 72.7, 43.6, 50.7, 67.9, 61, 62.1, 66, 57.4, 99.1, 54.8, 66.7, 60.1, 68, 74, 69.4, 56% (compound alone 0.1 µM); 49, 56.1, 33.6, 35.3, 52.9, 42.4, 21, 39.7, 31.4, 37.4, 58.1, 60.8, 99.4, 49.7, 62.7, 50.4, 52.5% (compound alone 0.316 µM); 89.6, 14.6, 12.5, 18.6, 17.2, 12.1, 0.12, 0.3, 0.13, 0.49, 0.39, 1.07, 0.34, 7.34, 6.48, 3.48, 6.84% (compound alone 3.16 µM). The IC50 (commonly the midpoint of a concentration-inhibition curve) is > 3.16 µM, 438 nM, 89.2 nM, 87.9 nM, 361 nM, 247 nM (run of 07/12/2021) and 131, 222, 122, 239, 410 nM (run of 07/19/2021).

For the compound `COc1cc2nccc(Oc3ccc(NC(=O)C4(C(=O)Nc5ccc(F)cc5)CC4)cc3)c2cc1OC`, the IC50 is recorded as 7.09 µM, 6.05 µM, > 10 µM, 8.5 µM. The viability, T/C (compound alone 0.1 µM) was 91.9, 97.6, 78.5, 118, 94.6%. The viability, T/C (compound alone 0.316 µM) is 101, 97.2, 96.4, 125, 106%. The viability, T/C (compound alone 10 µM) is listed as 51, 36.6, 20.9, 118, 45.7%.

For `CNCc1ccccc1-c1csc(C(C)Nc2nc(C)nc3cc(OC)c(OC)cc23)c1` (stereo unspecified), the viability, T/C is, setting by setting: (compound alone 0.316 µM) 107, 111, 93.5 (2×), 69.6, 93.2, 93, 99.3, 90.8, 75.2, 95.8, 101, 103, 106, 104, 115, 90.7%; (compound alone 1 µM) 101, 104, 89.7, 65.7, 102, 81.6, 68.7, 81.2, 69.6, 82.5, 79.5, 83.4, 88.1, 94.9, 92.6, 95.5, 89.4%; (compound alone 3.16 µM) 103, 102, 58.7, 2.2, 0.23 (2×), 38.2, 0.3, 0.42, 0.18, 3.61, 0.37, 1.17, 4.01, 0.28, 5.22, 22.7%. Also, where the note is “run of 07/12/2021”, the IC50 was 5.72, 5.71, 3.76, 1.33, 1.8, 2.31 µM.

In the case of `CC(C)n1nc(-c2ccc3oc(N)nc3c2)c2c(N)ncnc21`, the IC50 is 8.94, 7.13, 6.46, 6.38, 2.88 nM. The viability, T/C (compound alone 0.00316 µM) was 80, 65.9, 59.7, 63.4, 46.5%.

As for `COc1cc(Nc2ncc3c(n2)-c2ccc(Cl)cc2C(c2c(F)cccc2OC)=NC3)ccc1C(=O)O`, the half-maximal inhibitory concentration (IC50) is listed as < 31.6 nM, 850 nM, 375 nM, 401 nM, 633 nM. The viability, T/C (compound alone 0.0316 µM) was 38.9, 64.4, 65.2, 69.4, 66.2%. Also, under “compound alone 0.1 µM”, the viability, T/C is recorded as 38.3, 64.2, 60.8, 62.2, 65.1%.

As to `CC1COCCN1c1cc(-c2ccnn2C)c2ccnc(-c3ccn[nH]3)c2n1` (stereo unspecified), the 50% inhibitory concentration (IC50) is 64.9 nM, 69.9 nM, 72.6 nM, < 10 nM, 62.2 nM. Besides, the viability, T/C (compound alone 0.01 µM) is listed as 105, 101, 99.7, 24.1, 98.9%. In addition, the viability, T/C (compound alone 0.0316 µM) is 81.3, 83.3, 91.1, 11, 80.1%. Further, the viability, T/C (compound alone 0.1 µM) is reported as 31.3, 35.1, 34.3, 6.95, 28.9%.

Take `COc1cc2nc(C)nc(NC(C)c3cc(N)cc(C(F)(F)F)c3)c2cc1OC1CCOC1` (stereo unspecified): the viability, T/C was 88.1, 101 (2×), 104, 99.4, 95.3, 73.9, 103, 98.5, 95.5, 96.2, 102, 94.8, 28.5, 10.7, 99.8, 88.4% (compound alone 0.1 µM); 67.4, 109, 91.4 (2×), 83.9, 92.8, 93.5, 77.8, 93.9 (2×), 84.1, 96.5, 93.8, 62.8, 99.2, 105, 97.2% (compound alone 0.316 µM); 95.5, 105, 101 (2×), 76.7, 83.4, 79.6, 58.6, 72.2, 84.5, 87.6, 90, 91.7, 92.1, 84.3, 113, 96.6% (compound alone 1 µM); 50.9, 68.3, 62.9, 60.6, 52.8, 61.5, 54.7, 60.4, 73, 83.5, 63.8, 76.3, 73.8, 109, 95.6, 84.6, 90.2% (compound alone 3.16 µM); 53.8, 59.5, 103, 49.4, 51.6, 51.8, 40.4, 44.6, 62.8, 56.4, 49.1, 56.2, 57.6 (2×), 64, 62, 60.8% (compound alone 10 µM). In addition, the IC50 is 3.86 µM, 6.46 µM, > 10 µM, 9.32 µM (run of 07/19/2021); > 10 µM and < 100 nM (run of 07/26/2021).

As to `CC1OCC2(CCN(c3cnc(Sc4ccnc(N)c4Cl)c(N)n3)CC2)C1N` (stereo unspecified), the viability, T/C is 72.6, 90.3, 82, 70.4, 86.6, 91.6, 83.4, 84.5, 80.3, 73.1, 65, 86.4, 63.1, 53.7, 90.7, 86.9, 93.2, 87.2, 83.7% (compound alone 0.316 µM); 92.2, 108, 92.1, 57.6, 62.3, 71.3, 50, 54, 72, 64.2, 57.7, 78.4, 60.3, 68.7, 67.7, 77.8, 69.2, 78.7, 75.2, 86.2% (compound alone 1 µM); 33.6, 66.4, 42.9, 43.3, 42.4, 30.6, 38.2, 32.1, 54.7, 50.5, 41.8, 72.4, 54.5, 67, 45.3, 71.9, 50.6, 60.2, 43.1, 72% (compound alone 3.16 µM); 40.9, 39.4, 44.8, 38.1, 27, 35.5, 31.5, 55.8, 33.9, 29, 63.2, 40.3, 51.3, 46.6, 49.8, 47, 57.1, 46.3, 67% (compound alone 10 µM). Further, the IC50 was 1.01 µM, 1.23 µM, > 10 µM, 2.9 µM, 1.4 µM (run of 07/19/2021) and 2.61 µM, > 10 µM, 2.96 µM, 2.59 µM, 5.2 µM (run of 07/26/2021).

Take `COc1cc(OC)cc(N(CCNC(C)C)c2ccc3ncc(-c4cnn(C)c4)nc3c2)c1`: the IC50 was 4.08 µM, 5.67 µM, 4.73 µM, 288 nM, 5.63 µM. Besides, the viability, T/C (compound alone 0.0316 µM) was 103 (2×), 94.6, 137, 102%. Besides, for the setting “compound alone 0.1 µM”, the viability, T/C was 104 (2×), 96.1, 122, 93.7%. The viability, T/C (compound alone 0.316 µM) was 88.4, 102, 86.2, 42.9, 94.3%. The viability, T/C (compound alone 1 µM) is 79.7, 95.3, 82.9, 11.3, 89.7%. The viability, T/C (compound alone 3.16 µM) is 59.1, 78.5, 64.9, 4.83, 74.7%. Moreover, the viability, T/C (compound alone 10 µM) is 21.9, 22.3, 25.3, 0.85, 26.2%.

As to `C=CC(=O)N1CCN(c2nc(=O)n(-c3c(C)ccnc3C(C)C)c3nc(-c4c(O)cccc4F)c(F)cc23)C(C)C1` (stereo unspecified), the viability, T/C was 60.7, 81.5, 56.3, 46.9, 66.9, 67.3, 61.1, 57, 51.6, 57.1, 61.2, 63.4, 66.6, 63.2, 72.4, 62.1, 66.2% (compound alone 0.1 µM); 58.7, 70, 50.4, 51.4, 77, 34.3, 63.1, 56.9, 57.2, 57.6, 37.1, 69.3, 79.9, 68.4, 74.1, 72.1, 69.5% (compound alone 0.316 µM); 75.7, 71.5, 52.4, 50.4, 59.9, 63.1, 59.2, 64.1, 58.6, 66.3, 64.3, 65.4, 71.6, 58.9, 66.8, 64, 71.7% (compound alone 1 µM); 47.9, 65.1, 48.9, 53.9, 54.9, 45.2, 48.4, 46.9, 38.7, 44.7, 40.3, 45, 47.2, 47 (2×), 45.1, 49.6% (compound alone 10 µM). The IC50 (run of 07/12/2021) is 7.76 µM, < 100 nM, > 10 µM.
